In PubChem BioAssay (NCI) one finds GI50 and TGI data, which are given here for six compounds.

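Following 48 hours of exposure in 96-well plates, responses at five concentrations were used to interpolate endpoints linearly. GI50 marks 50% less growth.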 A number of entries come with more than one value. They are shown here; other results are not. There may be further records. For some assays here: The tests behind the records often covered other concentration ranges, which the source does not state; some values may only mark the edge of a range. For some assays here: The values listed for one entry repeat one measurement (runs, samples, wells, individuals or studies). Marks in square brackets tell the records apart. Letters hold for one entry only.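 TGI is the concentration that stops growth completely.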

Some test systems named below: ACHN renal; SR leukemia; SNB-19 CNS; EKVX NSCLC; MDA-MB-231 breast; RXF 393 renal; OVCAR-8 ovarian; KM12 colon; NCI-H522 lung; COLO 205 colon; HCT-116 colon; HL-60(TB) leukemia; MCF7 breast; DU-145 prostate; SF-268 CNS; HCC-2998 colon; SNB-75 CNS; A498 renal; SF-295 CNS.
What all share (assay): inhibition of tumour cell growth, NCI panel, 48 h

As for `C#CC(F)(F)[C@]1(O)CC[C@H]2[C@@H]3CCC4=CC(=O)CCC4=C3[C@@H](c3ccc(C4CC4)cc3)C[C@@]21C`, the GI50 is 20.9 nM [sample A, mean of 3 tests] and 1.33 µM [sample B, mean of 2 tests] in the experiment with ACHN renal; 21.5 nM [sample A, 1 test] and 295 nM [sample B, 1 test] with SR leukemia; 382 nM [sample A, mean of 3 tests] and < 13.6 nM [sample B, mean of 2 tests] with EKVX NSCLC; 17.8 nM [sample A, mean of 2 tests] and 993 nM [sample B, mean of 2 tests] with MDA-MB-231 breast; 114 nM [sample A, mean of 3 tests] and 1.22 µM [sample B, mean of 2 tests] in the experiment with RXF 393 renal; 152 nM [sample A, mean of 3 tests] and 2 µM [sample B, mean of 2 tests] with OVCAR-8 ovarian. Moreover, the TGI in the experiment with ACHN renal was 483 nM [sample A, mean of 3 tests] and > 28.5 µM [sample B, mean of 2 tests]; with SR leukemia it was 107 nM [sample A, 1 test] and 3.03 µM [sample B, 1 test]; in the experiment with SNB-19 CNS, 5.02 µM [sample A, mean of 2 tests] and > 100 µM [sample B, mean of 2 tests]; in the experiment with EKVX NSCLC, 1.73 µM [sample A, mean of 3 tests] and < 22.5 nM [sample B, mean of 2 tests]; in the experiment on MDA-MB-231 breast, 45.2 nM [sample A, mean of 2 tests] and 4.69 µM [sample B, mean of 2 tests]; with OVCAR-8 ovarian, 4.32 µM [sample A, mean of 3 tests] and > 61 µM [sample B, mean of 2 tests]. The TGI in the experiment with KM12 colon was 99.8 nM [sample A, mean of 3 tests] and 1.16 µM [sample B, mean of 2 tests].
With `O=C(NNC(=O)c1ccccc1S)c1ccccc1S`, the TGI in the experiment on NCI-H522 lung is 1.06 µM and > 100 µM.
Turning to `CCC(C)C1NC(=O)C(NC(=O)C(CC(C)C)N(C)C(=O)[C@@H]2C=CCN2C(=O)[C@H](C)O)C(C)OC(=O)[C@H](Cc2ccc(OC)cc2)N(C)C(=O)[C@@H]2CCCN2C(=O)[C@H](CC(C)C)NC(=O)C(C)C(=O)[C@H](C(C)C)OC(=O)CC1O` (some centres not stated), the TGI in the experiment on COLO 205 colon was 3 nM and > 100 µM; with HCT-116 colon, 12 nM and > 100 µM; in the experiment with HL-60(TB) leukemia, 32.2 nM and > 100 µM; in the experiment with MCF7 breast, 23.1 nM and > 100 µM.
Consider `CC(C)NCCCNc1c2ccccc2nc2cccc([N+](=O)[O-])c12`, for which the TGI was 1.28 nM and > 100 µM in the experiment on SR leukemia; 43.2 nM and > 100 µM with HL-60(TB) leukemia; 1.02 µM and 55.6 nM in the experiment with SNB-19 CNS; 39.9 nM and 13.4 µM in the experiment with DU-145 prostate.
For the compound `O=c1cc(/C=C/c2ccc(O)c(O)c2)cc(/C=C/c2ccc(O)c(O)c2)o1`, the TGI in the experiment with NCI-H522 lung is 50 µM and 4.29 µM.
As to `COC(=O)N[C@H]1C=C[C@@H]2/C=C(C)/C=C/[C@@H](C)[C@H]([C@H](C)[C@H](O)[C@@H](C)NC(C)=O)OC(=O)/C=C/C=C(C)\C=C\[C@]2(C)C1`, the GI50 in the experiment with SF-268 CNS is 696 nM and 36.8 nM; in the experiment with HCC-2998 colon, 24.3 nM and 7.06 µM; in the experiment with SNB-75 CNS, 2.35 nM and 26.8 nM; in the experiment with EKVX NSCLC, 39 nM and 738 nM; with DU-145 prostate, 311 nM and 20.1 nM. Also, the TGI in the experiment on SNB-75 CNS was 41.1 nM and 3.22 µM; with MDA-MB-231 breast, 7.1 nM and 5.5 µM; in the experiment on A498 renal, 650 nM and 11.4 µM; in the experiment with SF-295 CNS, 39.6 nM and 7.23 µM.
